Screen size: about 390,000 compounds; about 930 (0.24%) were called active. Inconclusive means that the source gave no clear call. Such entries were picked first, then a sample of the others. Calls follow the shape of the dose curve; as a rule, active = well fitted activation curve with a large enough effect; inconclusive = small, poorly fitted or top-dose-only effect; inactive = no such curve, though single readings can be large or run the other way. A potency beside an inconclusive call is a rough fit, not a confirmed value.
Test: qHTS for Suppressors of FUS Proteinopathy: Primary screen using FUS-linked yeast assay; also: nearly all actives have a fitted effect of over 55% in size;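 as to growth rescue (activation): plate controls were DMSO vehicle for no effect and reference control for full effect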
Conditions: S. cerevisiae FUS-expressing, OD600, 24 h; Potency: growth rescue; growth rescue (activation): at 76.6 µM (top of the series)
In short: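 Cultures pregrown in 2.5% raffinose medium are shifted to minimal medium containing 2% galactose to express toxic FUS. Compounds are tested at several concentrations. After 24hr at 30C, growth is quantified at 600 nm absorbance.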
Potency is read from the fitted curve at half-maximal effect; tags tell the direction and shape of the fitted curve.

Row | SMILES | Potency | growth rescue (activation)
1 | CC(C)c1ccc(NC(=O)Nc2nc(C(N)COCc3ccccc3)cs2)cc1 (configuration not stated) | inconclusive: 35.5 µM [activator, single point] | 
2 | O=C(c1cccc(Cl)c1)N(Cc1ccco1)Cc1ccccc1Cl |  | inactive: 24.2%
3 | COc1ccc2c(c1)CCC/C2=N/OC(=O)c1ccccc1OC |  | inactive: -41.5%
4 | COc1ccc(NC(=O)CSc2nc(N)c(C#N)cc2C#N)cc1 |  | inconclusive: 17.7% [activator]
5 | Cc1cncc(NCc2cccc(Cl)c2)n1 |  | inactive: 2.6%
6 | CC(=O)c1cccc(NC(=O)Nc2cnn(Cc3ccc(Cl)cc3Cl)c2)c1 |  | inactive: 35.1%
7 | CCCCCCCCCCCCCCCC(=O)OC(CC(=O)O)C[N+](C)(C)C (configuration not stated) | inconclusive: 22.4 µM [activator, single point] | 
8 | O=C(C[C@@H]1CC[C@@H]2[C@H](COC[C@H](O)CN2Cc2cccc(C(F)(F)F)c2)O1)NCc1ccc(Cl)cc1 | inconclusive: 7.94 µM [activator, partial curve] | 
9 | Cc1cccc(CS(=O)(=O)c2ncc(Cl)c(C(=O)Nc3nc4ccc(F)cc4s3)n2)c1 | inconclusive: 3.55 µM [activator, full curve] | 
10 | CCOCCCNC(=O)Nc1cc(C(=O)NCc2ccc(C(C)C)cc2)ccc1N1CCCC1 | inconclusive: 31.6 µM [activator, single point] | 
11 | COc1ccc(N2C(=O)C3C4c5ccccc5C(C=Nc5ccc(C)cc5C)(c5ccccc54)C3C2=O)cc1 (configuration not stated) | inconclusive: 31.6 µM [activator, single point] | 
12 | CC(C)n1nc(C(=O)Nc2cccc(S(=O)(=O)NCc3ccco3)c2)c2ccccc2c1=O | inconclusive: 31.6 µM [activator, single point] | 
13 | CC(=O)c1ccc(C(=O)N(Cc2cccnc2)c2nc3c(Cl)cccc3s2)cc1 | inconclusive: 35.5 µM [activator, partial curve, poor fit] | 
14 | O=C1NN(c2ccccc2)C(=O)/C1=C/c1ccc(-c2cccc(C(=O)O)c2)o1 | inconclusive: 35.5 µM [activator, partial curve] | 
15 | COc1cc2c(cc1OC)C(COc1ccc(F)cc1)N(C(=O)c1ccccc1F)CC2 (configuration not stated) | inconclusive: 31.6 µM [activator, single point] | 
16 | CC1(C)C/C(=N\NC(=S)Nc2ccccc2F)c2cc(O)ccc2O1 | inconclusive: 17.8 µM [activator, partial curve, poor fit] | 
17 | CCN1C(C(=O)c2ccccc2)=C(OC(=O)COc2ccccc2)c2ccccc2S1(=O)=O |  | inactive: 6.77%
18 | O=C(N/N=C/c1cc(Br)ccc1O)c1ccccc1Cl |  | inactive: 20.6%
19 | CCCCCCNC(=O)CNC(=S)N(Cc1cccs1)C1CCCCC1 | inconclusive: 31.6 µM [activator, single point] | 
20 | Cc1ccc(Sc2ccc(NC(=O)CCN3C(=O)NC4(CCCC4)C3=O)cc2)c(C)c1 | inconclusive: 28.2 µM [activator, single point] | 
21 | Cc1ccc(S(=O)(=O)C2(S(=O)(=O)c3ccc(C)cc3)CCCC2)cc1 | inconclusive: 12.6 µM [activator, partial curve] | 

Row | SMILES | Potency | growth rescue (activation)
22 | Cc1ccc(NC(=O)CN(C)C(=O)COC(=O)c2oc3ccccc3c2C)cc1 | inconclusive: 17.8 µM [activator, single point] | 
23 | O=C(NCCc1ccccc1)c1c(O)c2cccc3c2n(c1=O)CC3 | inconclusive: 10 µM [activator, partial curve] | 
24 | COc1cc(NC(=O)c2cccs2)c(OC)cc1NC(=O)CCC(=O)Nc1cccc2ncccc12 | inconclusive: 50.1 µM [activator, single point] | 
25 | O=C(Nc1nnc(Cc2ccccc2)s1)c1ccccc1 |  | inactive: -0.303%
26 | CCN(C(=O)CSc1nc2cc(C(=O)OC)ccc2c(=O)n1Cc1ccco1)c1cccc(C)c1 |  | inconclusive: 40.1% [activator]
27 | CCCCC(=O)NS(=O)(=O)c1ccc(NS(C)(=O)=O)cc1 |  | inactive: 11%
28 | O=c1c2cn[nH]c2nc(SCc2cc(=O)n3cc(Br)ccc3n2)n1-c1ccc(Br)cc1 | inconclusive: 39.8 µM [activator, partial curve, poor fit] | 
29 | COc1ccc(C(=O)C[C@@H]2OC[C@H](C(C)C)N2S(=O)(=O)c2ccc(C)cc2)cc1OC | inconclusive: 22.4 µM [activator, partial curve, poor fit] | 
30 | COc1ccc(Cl)cc1NC(=O)CN(C)C(=O)c1cc2ccccc2cc1OC | inconclusive: 31.6 µM [activator, partial curve, poor fit] | 
31 | COc1ccccc1C(=O)c1c(N)c(-c2nc(-c3ccccc3)cs2)c2ccccn12 |  | inactive: 21.9%
32 | CCOC(=O)[C@]12CCC=C1N(Cc1ccc(Cl)cc1Cl)C(=O)[C@H](CC(=O)N1CCCC1)C2 | inconclusive: 50.1 µM [activator, single point] | 
33 | COc1ccc2ccccc2c1/C=N/Nc1ccc(Cl)c(C(=O)O)c1 |  | inactive: 17.5%
34 | CCCc1cc(N2CCN(C(=O)c3ccco3)CC2)n2c(nc3ccccc32)c1C#N |  | inactive: 32.3%
35 | COC(=O)[C@]12C[C@H](CC(=O)NCc3ccc(OC)c(OC)c3)C(=O)N(Cc3ccc4c(c3)OCO4)C1=C[C@H](C(C)C)O[C@@H]2C1CC1 | inconclusive: 25.1 µM [activator, single point] | 
36 | COc1ccc(CCNC(=O)/C=C/c2ccc3ccccc3n2)cc1OC |  | inactive: -5%
37 | CCOC(=O)c1c(S(=O)(=O)NCC(=O)Nc2ccc(Cl)c(C(F)(F)F)c2)c(C)n(C)c1C | inconclusive: 39.8 µM [activator, partial curve, poor fit] | 
38 | Cc1ccnc(NC(=O)c2cc(S(=O)(=O)N3CCCCC3)ccc2Cl)c1 |  | inactive: 15.2%
39 | Cc1cccc(C)c1NC(=O)COC(=O)c1cc(=O)c2ccccc2o1 |  | inactive: 9.45%
40 | O=C(NN=Cc1c(O)ccc2ccccc12)c1ccc2c(c1)OCO2 |  | inactive: -2.53%
41 | CN(CC(=O)Nc1ccc(F)cc1)C(=O)c1cccc(S(=O)(=O)N2CCN(c3ccc(F)cc3)CC2)c1 | inconclusive: 20 µM [activator, single point] | 
42 | C[C@H](CO)N1C[C@H](C)[C@@H](CN(C)C(=O)Cc2ccccc2)OCCCC[C@H](C)Oc2ccc(NC(=O)NC3CCCCC3)cc2C1=O | inconclusive: 35.5 µM [activator, single point] | 

From PubChem BioAssay AID1347120 (National Center for Advancing Translational Sciences (NCATS), 2019)
